B1: 3D8VH-G1m/hT4VL-KT0.Avi I253F.T437D (antibody, human IgG1, kappa)
heavy: EVQLVESGGGLVQPGGSLRLSCAASGYTFTSYVMHWVRQAPGKGLEWVSAINPYNDGNYYADSVKGRFTISRDNSRKTLYLQMNSLRAEDTAVYYCARGAYKRGYAMDYWGQGTTVTVSSASTKGPSVFPLAPSSKSTSGGTAALGCLVKDYFPEPVTVSWNSGALTSGVHTFPAVLQSSGLYSLSSVVTVPSSSLGTQTYICNVNHKPSNTKVDKKV[human IgG1 Fc with I253F T437D (EU numbers) omitted here]
light: [about 200 residues omitted here]GGGGSGLNDIFEAQKIEWHE
B2: 3D8VH-G1m/hT4VL-KT0.Avi I253F.Y436T (antibody, human IgG1, kappa)
heavy: EVQLVESGGGLVQPGGSLRLSCAASGYTFTSYVMHWVRQAPGKGLEWVSAINPYNDGNYYADSVKGRFTISRDNSRKTLYLQMNSLRAEDTAVYYCARGAYKRGYAMDYWGQGTTVTVSSASTKGPSVFPLAPSSKSTSGGTAALGCLVKDYFPEPVTVSWNSGALTSGVHTFPAVLQSSGLYSLSSVVTVPSSSLGTQTYICNVNHKPSNTKVDKKV[human IgG1 Fc with I253F Y436T (EU numbers) omitted here]
light: [about 200 residues omitted here]GGGGSGLNDIFEAQKIEWHE
B3: 3D8VH-G1m/hT4VL-KT0.Avi I253L (antibody, human IgG1, kappa)
heavy: EVQLVESGGGLVQPGGSLRLSCAASGYTFTSYVMHWVRQAPGKGLEWVSAINPYNDGNYYADSVKGRFTISRDNSRKTLYLQMNSLRAEDTAVYYCARGAYKRGYAMDYWGQGTTVTVSSASTKGPSVFPLAPSSKSTSGGTAALGCLVKDYFPEPVTVSWNSGALTSGVHTFPAVLQSSGLYSLSSVVTVPSSSLGTQTYICNVNHKPSNTKVDKKV[human IgG1 Fc with I253L (EU numbers) omitted here]
light: [about 200 residues omitted here]GGGGSGLNDIFEAQKIEWHE
B4: 3D8VH-G1m/hT4VL-KT0.Avi I253L.D312H (antibody, human IgG1, kappa)
heavy: EVQLVESGGGLVQPGGSLRLSCAASGYTFTSYVMHWVRQAPGKGLEWVSAINPYNDGNYYADSVKGRFTISRDNSRKTLYLQMNSLRAEDTAVYYCARGAYKRGYAMDYWGQGTTVTVSSASTKGPSVFPLAPSSKSTSGGTAALGCLVKDYFPEPVTVSWNSGALTSGVHTFPAVLQSSGLYSLSSVVTVPSSSLGTQTYICNVNHKPSNTKVDKKV[human IgG1 Fc with I253L D312H (EU numbers) omitted here]
light: [about 200 residues omitted here]GGGGSGLNDIFEAQKIEWHE
B5: 3D8VH-G1m/hT4VL-KT0.Avi I253L.L432P (antibody, human IgG1, kappa)
heavy: EVQLVESGGGLVQPGGSLRLSCAASGYTFTSYVMHWVRQAPGKGLEWVSAINPYNDGNYYADSVKGRFTISRDNSRKTLYLQMNSLRAEDTAVYYCARGAYKRGYAMDYWGQGTTVTVSSASTKGPSVFPLAPSSKSTSGGTAALGCLVKDYFPEPVTVSWNSGALTSGVHTFPAVLQSSGLYSLSSVVTVPSSSLGTQTYICNVNHKPSNTKVDKKV[human IgG1 Fc with I253L L432P (EU numbers) omitted here]
light: [about 200 residues omitted here]GGGGSGLNDIFEAQKIEWHE
B6: 3D8VH-G1m/hT4VL-KT0.Avi I253L.M428F (antibody, human IgG1, kappa)
heavy: EVQLVESGGGLVQPGGSLRLSCAASGYTFTSYVMHWVRQAPGKGLEWVSAINPYNDGNYYADSVKGRFTISRDNSRKTLYLQMNSLRAEDTAVYYCARGAYKRGYAMDYWGQGTTVTVSSASTKGPSVFPLAPSSKSTSGGTAALGCLVKDYFPEPVTVSWNSGALTSGVHTFPAVLQSSGLYSLSSVVTVPSSSLGTQTYICNVNHKPSNTKVDKKV[human IgG1 Fc with I253L M428F (EU numbers) omitted here]
light: [about 200 residues omitted here]GGGGSGLNDIFEAQKIEWHE
B7: 3D8VH-G1m/hT4VL-KT0.Avi I253L.N315M (antibody, human IgG1, kappa)
heavy: EVQLVESGGGLVQPGGSLRLSCAASGYTFTSYVMHWVRQAPGKGLEWVSAINPYNDGNYYADSVKGRFTISRDNSRKTLYLQMNSLRAEDTAVYYCARGAYKRGYAMDYWGQGTTVTVSSASTKGPSVFPLAPSSKSTSGGTAALGCLVKDYFPEPVTVSWNSGALTSGVHTFPAVLQSSGLYSLSSVVTVPSSSLGTQTYICNVNHKPSNTKVDKKV[human IgG1 Fc with I253L N315M (EU numbers) omitted here]
light: [about 200 residues omitted here]GGGGSGLNDIFEAQKIEWHE
B8: 3D8VH-G1m/hT4VL-KT0.Avi I253L.N315Q (antibody, human IgG1, kappa)
heavy: EVQLVESGGGLVQPGGSLRLSCAASGYTFTSYVMHWVRQAPGKGLEWVSAINPYNDGNYYADSVKGRFTISRDNSRKTLYLQMNSLRAEDTAVYYCARGAYKRGYAMDYWGQGTTVTVSSASTKGPSVFPLAPSSKSTSGGTAALGCLVKDYFPEPVTVSWNSGALTSGVHTFPAVLQSSGLYSLSSVVTVPSSSLGTQTYICNVNHKPSNTKVDKKV[human IgG1 Fc with I253L N315Q (EU numbers) omitted here]
light: [about 200 residues omitted here]GGGGSGLNDIFEAQKIEWHE
B9: 3D8VH-G1m/hT4VL-KT0.Avi I253L.Q438E (antibody, human IgG1, kappa)
heavy: EVQLVESGGGLVQPGGSLRLSCAASGYTFTSYVMHWVRQAPGKGLEWVSAINPYNDGNYYADSVKGRFTISRDNSRKTLYLQMNSLRAEDTAVYYCARGAYKRGYAMDYWGQGTTVTVSSASTKGPSVFPLAPSSKSTSGGTAALGCLVKDYFPEPVTVSWNSGALTSGVHTFPAVLQSSGLYSLSSVVTVPSSSLGTQTYICNVNHKPSNTKVDKKV[human IgG1 Fc with I253L Q438E (EU numbers) omitted here]
light: [about 200 residues omitted here]GGGGSGLNDIFEAQKIEWHE
B10: 3D8VH-G1m/hT4VL-KT0.Avi I253L.T437D (antibody, human IgG1, kappa)
heavy: EVQLVESGGGLVQPGGSLRLSCAASGYTFTSYVMHWVRQAPGKGLEWVSAINPYNDGNYYADSVKGRFTISRDNSRKTLYLQMNSLRAEDTAVYYCARGAYKRGYAMDYWGQGTTVTVSSASTKGPSVFPLAPSSKSTSGGTAALGCLVKDYFPEPVTVSWNSGALTSGVHTFPAVLQSSGLYSLSSVVTVPSSSLGTQTYICNVNHKPSNTKVDKKV[human IgG1 Fc with I253L T437D (EU numbers) omitted here]
light: [about 200 residues omitted here]GGGGSGLNDIFEAQKIEWHE
B11: 3D8VH-G1m/hT4VL-KT0.Avi I253L.Y436T (antibody, human IgG1, kappa)
heavy: EVQLVESGGGLVQPGGSLRLSCAASGYTFTSYVMHWVRQAPGKGLEWVSAINPYNDGNYYADSVKGRFTISRDNSRKTLYLQMNSLRAEDTAVYYCARGAYKRGYAMDYWGQGTTVTVSSASTKGPSVFPLAPSSKSTSGGTAALGCLVKDYFPEPVTVSWNSGALTSGVHTFPAVLQSSGLYSLSSVVTVPSSSLGTQTYICNVNHKPSNTKVDKKV[human IgG1 Fc with I253L Y436T (EU numbers) omitted here]
light: [about 200 residues omitted here]GGGGSGLNDIFEAQKIEWHE
B12: 3D8VH-G1m/hT4VL-KT0.Avi I253M (antibody, human IgG1, kappa)
heavy: EVQLVESGGGLVQPGGSLRLSCAASGYTFTSYVMHWVRQAPGKGLEWVSAINPYNDGNYYADSVKGRFTISRDNSRKTLYLQMNSLRAEDTAVYYCARGAYKRGYAMDYWGQGTTVTVSSASTKGPSVFPLAPSSKSTSGGTAALGCLVKDYFPEPVTVSWNSGALTSGVHTFPAVLQSSGLYSLSSVVTVPSSSLGTQTYICNVNHKPSNTKVDKKV[human IgG1 Fc with I253M (EU numbers) omitted here]
light: [about 200 residues omitted here]GGGGSGLNDIFEAQKIEWHE
B13: 3D8VH-G1m/hT4VL-KT0.Avi I253M.D312H (antibody, human IgG1, kappa)
heavy: EVQLVESGGGLVQPGGSLRLSCAASGYTFTSYVMHWVRQAPGKGLEWVSAINPYNDGNYYADSVKGRFTISRDNSRKTLYLQMNSLRAEDTAVYYCARGAYKRGYAMDYWGQGTTVTVSSASTKGPSVFPLAPSSKSTSGGTAALGCLVKDYFPEPVTVSWNSGALTSGVHTFPAVLQSSGLYSLSSVVTVPSSSLGTQTYICNVNHKPSNTKVDKKV[human IgG1 Fc with I253M D312H (EU numbers) omitted here]
light: [about 200 residues omitted here]GGGGSGLNDIFEAQKIEWHE
B14: 3D8VH-G1m/hT4VL-KT0.Avi I253M.L432P (antibody, human IgG1, kappa)
heavy: EVQLVESGGGLVQPGGSLRLSCAASGYTFTSYVMHWVRQAPGKGLEWVSAINPYNDGNYYADSVKGRFTISRDNSRKTLYLQMNSLRAEDTAVYYCARGAYKRGYAMDYWGQGTTVTVSSASTKGPSVFPLAPSSKSTSGGTAALGCLVKDYFPEPVTVSWNSGALTSGVHTFPAVLQSSGLYSLSSVVTVPSSSLGTQTYICNVNHKPSNTKVDKKV[human IgG1 Fc with I253M L432P (EU numbers) omitted here]
light: [about 200 residues omitted here]GGGGSGLNDIFEAQKIEWHE

Target: T1, human TRIM21 PRYSPRY domain with N-terminal 6xHis tag (human)
T1 construct: Expressed from pET28a in E. coli; also called hTRIM21
T1 chain: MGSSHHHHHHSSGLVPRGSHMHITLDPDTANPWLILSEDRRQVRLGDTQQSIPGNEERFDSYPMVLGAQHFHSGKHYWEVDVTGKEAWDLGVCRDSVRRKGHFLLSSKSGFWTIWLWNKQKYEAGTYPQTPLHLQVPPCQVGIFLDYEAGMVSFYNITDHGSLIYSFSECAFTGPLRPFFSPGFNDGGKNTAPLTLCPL
Test: SPR, Ab captured on Protein L, hTRIM21 12.5-200 nM

| Binder | Kd [pM] | koff [s⁻¹] | kon [M⁻¹ s⁻¹] |
| --- | --- | --- | --- |
| B1 | 844 | 0.00192 | 2.28e+06 |
| B2 | 1550 | 0.00227 | 1.47e+06 |
| B3 | 834 | 0.00155 | 1.86e+06 |
| B4 | 421 | 0.000839 | 1.99e+06 |
| B5 | 1070 | 0.00138 | 1.29e+06 |
| B6 | 303 | 0.000536 | 1.77e+06 |
| B7 | 409 | 0.000728 | 1.78e+06 |
| B8 | 280 | 0.000561 | 2e+06 |
| B9 | 245 | 0.000618 | 2.52e+06 |
| B10 | 450 | 0.000886 | 1.97e+06 |
| B11 | 806 | 0.000884 | 1.1e+06 |
| B12 | 4560 | 0.0122 | 2.66e+06 |
| B13 | 1630 | 0.00419 | 2.57e+06 |
| B14 | 1660 | 0.00253 | 1.53e+06 |
